Measured values: the RNAGym collection of RNA variant scans (doi:10.1101/gad.245936.114)
This sample is rich in variants without activity.

B1: tRNA (parent)
chain: CUCUCGGUAGCCAAGUUGGUUUAAGGCGCAAGACUUUAAUUUAUCACUACGAAAUCUUGAGAUCGGGCGUUCGACUCGCCCCCGGGAGAUUUUUUCCUCGAGCAA

Variants of: B1
Assay: nonsense suppression (GFP-seq) (ratio to wild type); higher = more function; SUP4oc tRNA, yeast GFP reporter sort-seq
Outline: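 To measure nonsense suppression, tRNA variants from a library carrying ~3% random mutations were integrated into the yeast genome alongside RFP and a GFP ochre reporter under galactose control. Growth took place in raffinose/galactose medium supplemented with 80 mg/L adenine, followed by sorting into GFP/RFP bins and Illumina sequencing of each bin (phred ≥30). For each variant with ≥100 reads and ≥30 cells, the bin median GFP/RFP values were weighted by its estimated cell share per bin and referenced to the unmutated parent tRNA.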

Nonsense suppression, ≤ 0.026:
UCCUCGGUAGCCAAGUUGGUUUAAGGCGCAAGACUUUAAUUUAUCACUACGAAAUCUUGAGAUCGGGCGUUCGACUCGCCCCCGGGCGAUUUUUUCCUCGAGCAA
UCCUCGGUAGCCAAGUUGGUUUAAGGCGCAAGACUUUAAUUUAUCACUACGAAAUGUCGAGAUCGGGCGUUCGACUCGCCCCCGGGUGAUUUUUUCCUCGAGCAA
UGCUCGGAAGCCAAGUUGGUCUAAGGCGCAAGACUUUAAUUUAUCACUACGAAAUCUUGAGCUCGGGCGUUCGACUCGCCCCCGGGAGAUUUUUUCCUCGAGCAA
UGCUCGGUAGCCAAGUUGGGUUAAGGCGAAAGACUUUAAUUUAUCACUACGAAAUCUUGAGAUCGGGCGUUCGACUCGCCCCCGGGAGAUUUUUUCCUCGAGCAA
UUCACGGUAGCCAAGUUGGUUUAAGGCGCAAAACUUUAAUUUAUCACUACGAAAUCUUGAGAACGGGCGUUCGACUCGCGCCCGGGAGAUUUUUUCCUCGAGCAA
UUCCCGGUAGCCAAGUUGGUUUAAGGCGCAAGACUUUAAUUUAUCACUACGAAAUCUUGAGAUCGGGCGUUCGACUCGCCCCCGGGAGAUUUUUUCCUCGAGCAA
UUCCCGGUAGCCAAGUUGGUUUAAGGCGCAAGGCUUUAAUUUAUCACUACGAAAUCUUGAGAUCGGGCGUUGGACUCGCCCCCGGGAGAUUUUUUCCUCGAGCAA
UUCCCGGUAGCCAAGUUGGUUUAAGGCGCAAGACUUUAAUUUAUCACUACGAAAUCUUGAAAUCGGGCGUUCGACUCGCCCCCGGGAGAUUUUUUCCUCGAGCAA
UUCCCGGUAGCCAAGGUGGUUUAAGGCGCAAGACUUUAAUUUAUCACUACGAAAUCUUGAUAUCGGGCGUUCGACUCGCCCCCGGGAGAUUUUUUCCUCGAGCAA
UUCCCGGUAGCCAAGUUGGUUUAAGGCGCAAGACUUUAAUUUAUCACUACGAAAUCUUGAGAUCGGGCGUUCGACACGCCCCCGGGAGAUUUUUUCCUCGAGCAA
UUCGCGGUAGCCAAGUUGGUUUAAGGCGCAAGACUUUAAUUUAUCACUACGAAAUCUUGAGAUCGGGCGUUCGACUCGCCCCCGGGCGAUUUUUUCCUCGAGCAA
UUCGUGGUAGCCAAGUUGGUUUAAGGCGCAGGACUUUAAUUUAUCACUACGAAAUCUUGAGAUCGGGCGUUCGACUCGCCACCGGGAGAUUUUUUCCUCGAGCAA
UUCGCGGUAACCAAGUUGGUGUAGGGCGCAAGACUUUAAUUUAUCACUACGAAAUCUUUAGAUCGGGCGCUCGACUCGCCCCCGGGAGAUUUUUUCCUCGAGCAA
UUCGCGGUAGCCAAGUUGCUUUAAGGCGCAAGACUUUAAUUUAUCACUACGAAAUCUUGAGAUCGGGCGUUCGACUCGCCCCCGGGAGAUUUUUUCCUCGAGCAA
UUCUCGGAAGCCAAGUUGGUUUAAGGCGCAAGACUUUAAUUUAUCACUACGAAAUCUUGAGAUCGGGCGUUCGACUCGCCCCCGGGAGAUUUUUUCCUCGAGCAA
UUCUCGGAAGCCAAGUUGGUUUAAGGCGCAAGCCUUUAAUUUAUCACUACGAAACCUUGAGAUCGGGCGUUCGACUCGCCCCCGGGAGAUUUUUUCCUCGAGCAA
UUCUCGGAAGCCAAGUUGGUUUAAGGCGCAAGACUUUAAUUUAUCACUACGAAAUCUUGAGAUCGGGCGUUCGACUCUCCCCCGGGAGUUUUUUUCCUCGAGCAA
UUCUCGGGAGCCAAGUUGGUUUAAGGCGCAAGACUUUAAUUUAUCACUACGAAAUCUUGAGAUCCGGCGCUUGACUCGCCCCCGAGAGAUUUUUUCCUCGAGCAA
UUCUCGGUAGCCAAGAUGGUUUAAGGCGCAGGACUUUAAUUUAUCACUACGAAAUCUAGAGAUCGGGCGUUCGACUUGCCCCCGGGAGAUUUUUUCCUCGAGCAA
UUCUCGGUAGCCAAGAUGGUUUAAGGCGCAAGACUUUAAUUUAUCACUACGAAAUCUUGAGAUCGGGCGUUCCACUCGCCCCCGGGAGAUUUUUUCCUCGAGCAA
UUCUCGGUAGCCAAGUAGGUUUAAGGCGCAAUACUUUAAUUUAUCACUACGAAAUCUUGAGAUCGGGCGUUCGACUCGCCCCCGGGAGAUUUUUUCCUCGAGCAA
UUCUCGGUAGCCAAGUAGGCUUAAGGCGCAAGACUUUAAUUUAUCACUACGAAAUCCUGAGAUCGAGCGUUCGACGCGCCCCCGGGAGAUUUUUUCCUCGAGCAA
UUCUCGGUAGCCAAGUCGGUUUAAGGCGCAAGACUUUAAUUUAUCACUACGAAAUCUUGAGAUCGGGCGUUCGACUCGCCGCCCGGAGAUUUUUUCCUCGAGCAA
UUCUCGGUAGCCAAGUUGGAUUAAGGCGCAAGACUUUAAUUUAUCACUACGAAAACUUGAGAUCGGGCGUUCGACUCGCGCCCGGGAGAUUUUUUCCUCGAGCAA
UUCUCGGUAGCCAAGUUGGGUUAAGGCGCAAGACUUUAAUUUAUCACUACGAAAUCUUGAGAUCGGGCUUUCGACUCGCCCCCGGGAGAUUUUUUCCUCGAGCAA
UUCUCGGUAGCCAAGUUGGUAUAAGGCGCAAGACUUUAAUUUAUCACUACGAAAUCUUGAGAUCGGGCGUUCGACUCGCCCCCGGGAGAUUUUUUCCUCGAGCAA
UUCUCGGUAGCCAAGUUGGUAUAUGGCGCAAGACUUUAAUUUAUCACUACGAAAUCUUGAGAUCGGGCGUUCGUCUCGCCCCCGGGAGAUUUUUUCCUCGAGCAA
